Experimental data from patent publication US20260209325A1, “SELECTIVE AND POTENT INHIBITORY ANTIBODIES OF MYOSTATIN ACTIVATION” (SCHOLAR ROCK, INC., priority 2022, published 2026).
Blank lines part the entries; values can stand above or below the molecule they belong to.

Experiments:
[1] = dexamethasone-induced muscle atrophy mouse model; format: in vivo; details: dexamethasone treated mice
Source text: To evaluate in vivo efficacy of the novel myostatin-selective inhibitors disclosed herein, the ability of the antibodies to preserve lean muscle mass was examined in a dexamethasone-induced atrophy mouse model. An excess of glucocorticoids directly stimulates myostatin production via interactions with a glucocorticoid response element in the myostatin promoter, thus inducing loss of muscle mass. As shown herein, antibodies of the disclosure prevented glucocorticoid-induced muscle atrophy.
C57BL6 male mice (n=8) at 13-14 weeks of age were given normal drinking water or water containing dexamethasone at a concentration of 2.5 mg/kg (17.5 grams dexamethasone per liter of drinking water) to induce atrophy. […] Body weight was measured daily. Body composition was measured by qNMR to determine lean mass pre-dosing, at day 7, and at day 14. After 14 days of dexamethasone exposure, the animals were terminated, and body weight and gastrocnemius weight were measured. Terminal blood for each animal was also collected.
C57BL6 male mice (n=8) at 13-14 weeks of age were given normal drinking water or water containing dexamethasone at a concentration of 2.5 mg/kg to induce atrophy. Mice were dosed at day 1 and day 7 with vehicle (PBS), IgG control (“hIgG”) or different doses of the test antibodies, as shown in Table 13. Muscle mass at days −1, 6 and 13 was measured using qNMR. At the end of the study (day 14), serum from each animal was collected and changes in body weight, body composition (qNMR), left and right gastrocnemius weight, and left and right quadriceps weight were measured. Statistical analysis was performed by ANOVA (Dunnett's multiple comparison test).
In a third experiment, antibody doses ranging from 0.3 mg/kg to 10 mg/kg were compared for their effectiveness in attenuating dexamethasone-induced atrophy. C57BL6 male mice (n=8) at 13-14 weeks of age were given normal drinking water or water containing dexamethasone at a concentration of 2.5 mg/kg to induce atrophy. Mice were dosed at day 1 and day 7 with vehicle (PBS), human IgG control (“hIgG”) or different doses of the test antibodies, as shown in Table 14 below. qNMR was used to measure muscle mass at days −1, 6 and 13. At day 14 the study ended, serum was collected and changes in body composition (qNMR), left and right gastrocnemius weight, and left and right quadriceps weight were determined. Circulating myostatin was measured in the serum of a terminal bleed taken at day 14. Statistical analysis was performed by ANOVA (Dunnett's multiple comparison test).
In a fourth experiment, antibodies Ab109 and Ab133 were compared to control human IgG and Ab2 in the same protocol as described above.

[2] = molecular target: T1, human pro-myostatin (Homo sapiens, UniProt O14793); assay: Biacore 8k SPR binding affinity, human pro-myostatin
Source text: (§1) The Biacore™ 8k SPR system was utilized to evaluate the binding affinity of myostatin antibodies to biotinylated human, murine, and cyno pro-myostatin. Biotin CAPture kit and sensor chips (Cytiva) were utilized in these experiments to immobilize the various antigens, followed by flowing a range of concentrations of each of the test antibodies.

[3] = molecular target: cyno pro-myostatin (Macaca fascicularis, UniProt Q95J86); assay: Biacore 8k SPR binding affinity, cyno pro-myostatin; design: species or system cynomolgus monkey
Source text: as §1

[4] = molecular target: murine pro-myostatin (Mus musculus, UniProt O08689); assay: Biacore 8k SPR binding affinity, murine pro-myostatin
Source text: as §1

[5] = molecular target: T1, human pro-myostatin; assay: SEC-MALS binding stoichiometry; details: for SEC-MALS Result: mass of complex
Experimental: A combination of size exclusion chromatography and multi-angle light scattering (SEC-MALS) was used to determine the approximate mass and therefore the oligomeric state of the antibodies and their stoichiometry of binding to human promyostatin. The monoclonal antibody (mAb) or its Fab fragment was mixed with 50 μg of human pro-myostatin at a ratio of 1:1, 2:1 or 3:1 (antibody to antigen) for at least 24 hours at room temperature for immune complexes to form, filtered and injected into an analytical SEC column (Waters HPLC with a Superdex 200 10/300), flowed through a refractive index detector and then a miniDAWN® multi-angle light scattering detector to determine the mass. A full-length human-pro-myostatin with an N-terminal His6 tag (SEQ ID NO: 941) was used to express pro-myostatin in HEK cells. The signal peptide present in the construct is cleaved during biosynthesis. The resulting recombinant human pro myostatin was purified using the His6 tag (SEQ ID NO: 941) and used for the experiment.

[6] = Fab fragment, input ratio Fab:pro-myostatin 2:1
[7] = Fab fragment, input ratio Fab:pro-myostatin 3:1
[8] = full-length mAb, input ratio mAb:pro-myostatin 1:1
[9] = full-length mAb, input ratio mAb:pro-myostatin 3:1

Ka [2]: 217000 M⁻¹ s⁻¹ | Kd (1/s) [2]: 0.000122 s⁻¹ | Ka [3]: 207000 M⁻¹ s⁻¹ | Kd (1/s) [3]: 0.000124 s⁻¹ | Ka [4]: 251000 M⁻¹ s⁻¹ | Kd (1/s) [4]: 0.000188 s⁻¹ | MALS observed molecular weight of Fab:pro-myostatin complex ([5]; Fab fragment): 186.5 kDa | binding stoichiometry mAb:pro-myostatin ([5]; full-length mAb): large poly-daisy chains
B1: Ab112: anti-pro/latent myostatin antibody; CDR sequences in Table 2d (antibody)
heavy: QVQLVQSGAEVKKPGASVKVSCKVSGGTFGIYAIHWVRQAPGKGLEWMGGTIPVFGTAIYAQKFQGRVTMTEDTSTDTAYMELSSLKSEDTAVYYCASLTGIAAAGTHPARGGMDVWGQGTTVTVSSASTKGPSVFPLAPCSRSTSESTAALGCLVKDYFPEPVTVSWNSGALTSGVHTFPAVLQSSGLYSLSSVVTVPSSSLGTKTYTCNVDHKPSNTKVDKRV[human IgG4 Fc with S228P (EU numbers) left out]
light: DIQMTQSPSSVSASVGDRVTITCRASPSISSYLAWYQQKPGKAPKLLIYAASRLQSGVPSRFSGSGSGTDFTLTISSLQPEDFANYYCQEYLSFPLTFGGGTKVEIKRTVAAPSVFIFPPSDEQLKSGTASVVCLLNNFYPREAKVQWKVDNALQSGNSQESVTEQDSKDSTYSLSSTLTLSKADYEKHKVYACEVTHQGLSSPVTKSFNRGEC
prevention of muscle atrophy ([1]; second experiment (FIG. 9)): less effective in preventing muscle-induced atrophy than Ab109 and Ab127 | SEC-MALS Result [5, 6]: 176.9 kDa | SEC-MALS Result [5, 7]: 180.9 kDa | Stoichiometry By MALS (mAb:pro-myostatin) Main peak ([5]; full-length mAb, main peak): Poly | SEC-MALS Result [5, 8]: 2,519 kDa | SEC-MALS Result [5, 9]: 699.6 kDa

Ka [2]: 1.38e+06 M⁻¹ s⁻¹ | Kd (1/s) [2]: 0.000543 s⁻¹ | Ka [3]: 1.59e+06 M⁻¹ s⁻¹ | Kd (1/s) [3]: 0.000539 s⁻¹ | Ka [4]: 1.25e+06 M⁻¹ s⁻¹ | Kd (1/s) [4]: 0.000772 s⁻¹ | MALS observed molecular weight of Fab:pro-myostatin complex ([5]; Fab fragment): 137.5 kDa
B2: Ab123: anti-pro/latent myostatin antibody; CDR sequences in Table 2d (antibody)
heavy: EVQLVESGGGLVQPGGSLRLSCAASGFTFSKYDMSWVRQAPGKGLELVASISSSGGTRYYPDSVKGRFTISRDNAKNSLYLQMNSLRAEDTAVYYCAKDLWVASPGYGMDVWGQGTTVTVSSASTKGPSVFPLAPCSRSTSESTAALGCLVKDYFPEPVTVSWNSGALTSGVHTFPAVLQSSGLYSLSSVVTVPSSSLGTKTYTCNVDHKPSNTKVDKRV[human IgG4 Fc with S228P (EU numbers) left out]
light: DIVMTQSPLSLPVTPGEPASISCRSSQSLLHSSGHNYLHWYLQKPGQSPQLLIYLGSIRAPGVPDRFSGSGSGTDFTLKISRVEAEDVGVYYCMQALLNPPTFGGGTKVEIKRTVAAPSVFIFPPSDEQLKSGTASVVCLLNNFYPREAKVQWKVDNALQSGNSQESVTEQDSKDSTYSLSSTLTLSKADYEKHKVYACEVTHQGLSSPVTKSFNRGEC
maintenance of body weight (percent change from baseline) ([1]; antibody 3 mg/kg/day, FIG. 6A, 9A): to a greater extent than Ab2 | SEC-MALS Result [5, 6]: 141.2 kDa | SEC-MALS Result [5, 7]: 144.5 kDa | SEC-MALS Result [5, 8]: 236.1 kDa | SEC-MALS Result [5, 9]: 237.5 kDa
